# Test results: ChEMBL document CHEMBL4888484, “Replenishing the malaria drug discovery pipeline: Screening and hit evaluation of the MMV Hit Generation Library 1 (HGL1) against asexual blood stage Plasmodium falciparum ,using a nano luciferase reporter read-out” (2022)
# About 540 (0.36%) of roughly 150,000 compounds showed an effect of 50% or more. The list shows a part of the results.
# Test system: Plasmodium falciparum
# Test: Primary screen in NF54 nanoGlo assay, in single point, at 2uM, 72h; a lower Z score goes with more inhibition
# Type: functional, Erythrocyte
# Conditions: timepoint 72 hour
SMILES,% Inhibition [%],Z score
Cn1cc(CCc2nc(-c3ccccc3)no2)cn1,0,0.02
O=C(C[C@H]1CCN(S(=O)(=O)c2ccc3c(c2)OCCO3)C1)NCc1ccccc1,-7,1.37
O=S(=O)(C[C@H]1CCCCO1)Nc1cc(F)c(F)cc1F,-7,0.77
N#Cc1cccc(CN2CCC(CNC(=O)c3cnccn3)CC2)c1,-6,1.23
O=C(C1CCN(S(=O)(=O)c2ccc3c(c2)CCC3)CC1)N1CCC1,-13,2.45
Cc1c(C(=O)OC(C)C)nnn1CC1CCCC1,-12,1.97
COc1cccc(C(=O)N2CCN(C(=O)c3cc4ccsc4n3Cc3ccccc3C)C[C@@H]2C)c1,12,-1.75
C[C@]1(NC(=O)c2nc3ncc(Br)cn3n2)CCOC1,3,-0.31
O=C(O)c1csc(-n2nc(C(F)F)cc2-c2ccco2)n1,-37,4.34
CCN(CC)[C@H](CNC(=O)c1cccc(S(=O)(=O)N2CCCCC2)c1)Cc1ccccc1,12,-1.58
CO[C@H]1CN(C2CCN(C(=O)c3n[nH]c4ccccc34)CC2)C12CCOCC2,-11,1.92
COC(=O)[C@H](NC(=O)Cc1ccncc1)c1cccc(C)c1,1,-0.15
Cc1nc(-c2ccco2)ccc1C(=O)N[C@@H](C)c1nnnn1C,-12,1.8
Cc1ccc(CN2c3ccc(C)cc3OC[C@@H]2CC(=O)Nc2nccs2)cc1,-2,0.34
COc1ccccc1NS(=O)(=O)c1ccc(Cl)c(NC(=O)[C@H](Cc2ccccc2)N2C(=O)c3ccccc3C2=O)c1,16,-2.5
CNC(=O)[C@H]1CN(C)C[C@@H]1NS(=O)(=O)c1ccccc1Cl,-7,0.92
CCN1C(=O)CN(C(=O)c2ccccn2)CC12CCOCC2,-4,0.56
CC(C)C(=O)c1ccc(C(C)C(=O)NC2(CCO)CCOC2)cc1 (stereo not drawn),-8,0.9
O=C1CC2(CCCCC2)Oc2cc(OCC(=O)N3CCOCC3)ccc21,-3,0.3
O=C(NC[C@H]1COCCO1)c1ccc(COc2ccc3ccccc3c2)o1,-8,0.8
Cc1nn(CCC#N)cc1Br,8,-0.95
O=C(N1CCCC1)N1CC[C@H]2[C@H](CCC(=O)N2CCc2ccccc2)C1,-1,0.14
Cc1cc(C)c2nc(N3CCC(C(=O)NCCCN4CCOCC4)CC3)sc2c1,-2,0.25
CC[C@](C)(NCc1ncc(-c2cccs2)o1)c1nccs1,-10,1.08
Cc1ccc(-c2cc3c(=O)n(Cc4noc(CN5CCCC5)n4)ccn3n2)cc1,-7,0.88
O=c1c(C(F)(F)F)cccn1Cc1csc(-c2ccccc2)n1,-3,0.44
O=C(c1ccccc1)N1CC[C@H](c2nnc(-c3ccncc3)o2)C1,-1,0.22

SMILES,% Inhibition [%],Z score
Cc1csc(CNC(=O)[C@]2(c3ccccc3)CCC(=O)NC2)c1,2,-0.33
Cc1ccc2nc3c(n2c1)[C@@H](c1cc2cccc(C)c2nc1O)CC(=O)NC3,4,-0.84
CC(C)[C@@H]1CN(C(=O)CCC(=O)N2CCC(O)CC2)c2ccccc21,-1,0.11
O=C(NCc1ccn(C2CCCC2)n1)c1cc[nH]n1,6,-0.72
CCc1cn[nH]c1[C@H]1CCCN(c2nc(C(F)(F)F)nc(C)c2C)C1,-4,0.5
CC1(C)NC(=O)N(Cc2ccnc(OC3CCOCC3)c2)C1=O,28,-3.79
Cc1c(Cl)c(C(=O)N2CCNC(=O)C[C@H]2c2ccccc2)nn1C,-3,0.36
COc1ccc(-c2cc(C(=O)NCc3cccc(OC)c3)sn2)cc1,-5,0.61
CN(C(=O)NC1CCCCC1)C1(CCO)CCOCC1,6,-0.76
Nc1ccc(-c2nnc(Cn3cncn3)[nH]2)cc1,-1,0.09
COc1ccc(-c2cccc3c2CCN(C(=O)c2ccncc2)[C@@H]3C)cc1,-7,0.67
O=C(Nc1ccc(-c2ncon2)cc1)c1cnn(-c2ncccc2Cl)c1C(F)(F)F,-12,1.27
CCOC(=O)c1cnn(CN2C[C@H](C)OC(C)(C)C2)c1C(F)F,-12,1.58
CC1CC(C)CN(CCNS(=O)(=O)CCC2CCCO2)C1 (stereo not drawn),-7,0.76
Cc1ccc(OC2CCN(C(=O)c3cn(C)nc3[C@H]3CCOC3)CC2)cc1,14,-1.9
CCN(Cc1cnn(CC)c1)C(=O)c1cnc(-c2cccnc2)nc1O,-4,0.76
CC1CCCCC1OCCNCc1c[nH]nc1-c1cccnc1 (stereo not drawn),-9,1.33
COc1cc(C(=O)Nc2ccc3c(c2)OCO3)on1,11,-1.65
Cc1c[nH]nc1NC(=O)c1ccc2ccccc2n1,13,-1.77
C=C(C)CN(Cc1ccccc1)C(=O)[C@@H]1C[C@H](C)[C@@H](C(=O)O)O1,-6,0.7
O=C(Nc1cccc(-c2ccco2)c1)C1CCN(C2Cc3ccccc3C2)CC1,-17,1.58
COC[C@H](C)n1cc(C(=O)N2CCC3(CN(C)C3)C2)c(C)n1,-4,0.79
CCc1c(C(=O)N[C@H]2Cc3cnccc3NC2=O)ccn1C,-11,2.13
Cc1cccc(NC(=O)CC(=O)N2CCN(CCOCCO)CC2)c1C,0,0.01
Cc1cccc(Cn2nc(Cc3cccnc3)nc2[C@@H]2CCC(=O)N2)c1,-10,1.49
CCC(=O)N1CCC(C(=O)N2CCCCCC2)CC1,-5,0.66
C#CCCC1(CCC(=O)N2CC(N3CCOCC3)CC2C)N=N1 (stereo not drawn),-6,0.65
